Here are results for 93 sequences from article PMC10726135.

This is one part of the list. At the low end of the ranking, values are background and their order means little. Measured with an extract: partners may take part in the binding.

The experiment deals with T1, HNF4alpha8 (COS-7 nuclear extract) (UniProt P41235-5).
T1 sequence: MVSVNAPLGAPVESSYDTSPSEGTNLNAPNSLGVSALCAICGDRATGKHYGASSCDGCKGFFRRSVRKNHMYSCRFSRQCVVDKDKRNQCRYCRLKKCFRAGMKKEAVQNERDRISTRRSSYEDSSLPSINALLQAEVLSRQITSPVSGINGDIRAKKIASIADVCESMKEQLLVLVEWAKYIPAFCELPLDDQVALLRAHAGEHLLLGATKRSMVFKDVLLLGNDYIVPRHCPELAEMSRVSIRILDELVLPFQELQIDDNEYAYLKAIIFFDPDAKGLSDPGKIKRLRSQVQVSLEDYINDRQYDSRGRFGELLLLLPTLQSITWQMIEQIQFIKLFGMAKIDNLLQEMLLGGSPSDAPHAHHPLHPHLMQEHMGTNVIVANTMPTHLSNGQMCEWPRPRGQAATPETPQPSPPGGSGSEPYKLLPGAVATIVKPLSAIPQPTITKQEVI
Put plainly: protein-binding microarray. The settings on record: COS-7 nuclear extract on double-stranded Agilent 4x180k PBM; binding buffer, salt, pH and temperature not given; high values mean tight binding; double strand, one strand shown; sequences stand for … in …GCCTAGGGAGATTAGAGTATCGGTCGA
Take TGTTACCTTTGGACTGTCCTTTGCTAGATT: the binding signal (log2 normalized intensity) was found to be 3.82.
Consider ACAGCGAGAGTCCTCTTGGTTTATGTTCAC, for which the binding signal (log2 normalized intensity) is 1.15.
In the case of AGTAGTTCTTCTGGTTAGTTTTTCAATGGC, the binding signal (log2 normalized intensity) was found to be 1.86.
Regarding AGAAGCTTGGTATGTCTGATGAATAGAAAG, the binding signal (log2 normalized intensity) was 0.138.
Take CTTCTTGTACCTCTGGTGATTACCAGTTAT: the binding signal (log2 normalized intensity) was 1.21.
Regarding AAACCTTATCTATTTGCTCCCAATTTCTAC, the binding signal (log2 normalized intensity) stood at 1.45.
In the case of ATGTCAACATCAGGGTGCCAGCAGGTGGTC it was 1.78; in that of AATGAGAATGGCCAGAGTTCCTGTGCAAGC, -1.33; in that of CCTGTTTTACAGGACATAGTCCTCTGCATA, 0.281.
For TTGTTATTTATTGGCCAGTAGCTCTGAGTT the value was 1.28; for GGCATGAGGTTCTTGTAAGGTTCTTGTATC, 1.79.
With GCCCTGCTCAGGGAATGTGGGTCCACATTC, the binding signal (log2 normalized intensity) is 3.18.
Consider AGTAACCTGACCCCCAGTGGAATGTGCCCT, for which the binding signal (log2 normalized intensity) was 4.61.
On to AAGGCAGAGGAAAGCCCTAGCTGACTGCGT, for which the binding signal (log2 normalized intensity) is -1.07.
In the case of TGCCTGAGATTCCTTCAAAGATTGTGAGAC it was 0.779; in that of TCACTGGGAGGGTGGGTTATCAGTAAGAGC, 0.0261.
For CTTCAGGTCAAGAGGGCCTCTGCTTGTCTT the value was 0.151; for CTACTACTTGACCTTTGAAACATATCCAGA, 6.31.
Consider TCACGTGGCCCTGGCATTTGGCTCAAAGGC, for which the binding signal (log2 normalized intensity) was -1.38.
In the case of TATCCAGGCCACGCTGCTAATCCTACTTTA it was -1.3; in that of ATTTTTAGGCTTGTTTATTCAGAGTTAGCT, -1.2; in that of ATTGAGATGGTAACCACACCAAGGGGCCCC, -1.29.
As to GGTGGACTTTGGCCGTGAAGCCGTCCTGTC, the binding signal (log2 normalized intensity) came to 5.87.
For CTAAATGGCAATGGCTGCAGCTCTTCCACG the value was -1.31.
For the sequence CTTTTGTGTGTTTACATAACCTGCCCAAAG, the binding signal (log2 normalized intensity) is 0.458.
Turning to CTCAATTATAACTCATGTTCAAACAGTGGT, the binding signal (log2 normalized intensity) was 1.14.
In the case of TTTTGTGTGCTAGATACTGGAGATATGTTG it was 0.786; in that of AATGGCAACATGTGGGCAAATAGGATTAGG, -1.45; in that of GCCACTTTCACAAATCATTACTATCTGCTG, -1.33.
Turning to CAGAGGACAGGCTAATGAGATAATGCTGGT, the binding signal (log2 normalized intensity) is -1.09.
For TAAAACGTGGTTCAGGGAGCGAATAAATAC the value was -1.18; for CAACTGGAAGTCCAGCATTCTTTTCCCCAT, 1.98; for GCCCTTTATCTCCTCTCTTCTCACTTTTTA, 1.48.
In the case of CTAAGATCCTAGGAGAGCCAAATCTTAAGG, the binding signal (log2 normalized intensity) is -1.3.
In the case of CCTCAGAACCATTTGTGAGGATGGGCAGTC it was 0.768.
Turning to GCAGGGAGGACACAGTGTTATTTGCTGAGG, the binding signal (log2 normalized intensity) is -1.22.
Turning to CACAACAGAAAGCAAGAGCACAAGAACAAA, the binding signal (log2 normalized intensity) is -1.38.
For TAGGGAAAAGATAAGGCGTAGTTCAGAGAA the value was -0.929; for CAGAGGCCAGAAAAGCAAACCGAGATCAAG, -1.41; for AAGCGTGCACCCCAGGTACGGAGGACAGCC, -1.26.
For CAAGATTCCTTGAGCATTCCAAAAAGCTTT the value was -1.34; for GCACCAATGATCAAAGAGACACAATCCCTA, -1.35.
Regarding AAGTGTCTTGGAGAGAAAAAATCAGAGAGC, the binding signal (log2 normalized intensity) was -1.24.
TTAGCAGATAAATCTAGGCCTAGGCATTGA: the binding signal (log2 normalized intensity) is -0.168.
For TTTGGAATTGTGTCACTCCCCAGGAATGTG the value was 2.09.
GAGGCTGACATCTCTCTGGCCTGTGGGGAG: the binding signal (log2 normalized intensity) was -1.37.
In the case of TCATGTGAAGACACTGAGGAAAAGCTGTCT, the binding signal (log2 normalized intensity) was -1.
For ACTTAACTACTACACTAAAAAAAAAAAAAT the value was -1.41; for ACTAGCAGATTCTGTGTGGTAAAAGCACTG, -1.12; for ATCGCCTGAATGACCACATGCCCTCAGTAC, 2.65.
In the case of CTATAGTTTCTGTTTTGATCTTAAGATGAT it was 1.74; in that of TGTGGGAGGGAAGGAGCCTAACTTTGATAG, -1.41.
In the case of ACAGACAGACATTCAGAAACTGTCACTTAA it was -1.32; in that of TTTACATAACCTGCCCAAAGTGGGGCTGCT, -1.21.
GCGGGTGCAGCTTCCACCTGCAAGGAAATA: the binding signal (log2 normalized intensity) was -1.27.
In the case of TCAGCACTGAGAGATTACATTTGACTGAGG it was -1.18.
In the case of CCGTGCCCCCTTTTGCTTTCCGTTAGGCTA it was 1.13; in that of TCACCTTTGCCCTGTCAGTCTCTCAATGAT, 4.01.
In the case of AAACGCTCCCAATGGCTCCACCAGTCAGTC it was -1.26; in that of GGATAACCTTCCAGACAGAGAGGTCAGCAA, 1.2.
In the case of GAGAATGCTAGACAAGGGAATTACTCTTCT, the binding signal (log2 normalized intensity) is -1.3.
For TAGAGCAGCAGTAGGCTCTCGGGCCAGCTG the value was -1.36.
In the case of CTTGTAAGCCACAGTACAAAGGTGAGCTTT it was 4.3; in that of ATCCTGCAGTTCCTGATCTTTGACCTGGAG, 6.23; in that of GTTTGTCTTACTGTGTTGTCGTATTTACTC, 1.36.
Take TGGGACAATGAAGCCTAAATGATAAGGGTT: the binding signal (log2 normalized intensity) was -0.805.
In the case of GCATTGCCGTTCAGGGCCACGGGAAAACCT it was -1.16; in that of ATTCATTCACCTTTCGCCCTTTGTCCTATG, 5.93; in that of GACACGGGCAGGTGAGAGGGCTCTGTCTGC, -1.3.
For the sequence GAAAGTACAGTGATGTTTGTCAAATGCTTC, the binding signal (log2 normalized intensity) is 0.496.
In the case of ATTCTGTACTTCAACCAGGTTCTCTTTACT it was 0.76; in that of CCTTTGTGTGAATCGACCTTTAGCACCGTA, 7.24; in that of CACCATTAGACTCTGCCCTCCTTAAGACCT, 2.24.
TATTATATTGTGGGTTCTTGCCCTTTGGTC: the binding signal (log2 normalized intensity) is 6.8.
In the case of ACCTGCCTCTCTCTCATGTCTGTACTGGGA it was 1.6; in that of AAGTAGCCTGGTCAGGAACAAAGGTCACAG, 5.98.
With AAACTGGAGGCCGCGACAAGCGTCGCTGAG, the binding signal (log2 normalized intensity) is -1.38.
For the sequence TTCTGTCCTCTCAAAGTCCACCCGGCCAGC, the binding signal (log2 normalized intensity) stood at 4.52.
For TCCCTTTGATATTTATCAAGATGAACTTTG the value was 5.51.
For TCTTCAGGCTGGGGCCCCATCGACCTTTGC the value was 7.4; for AAACAAAAGCTGCTTCTGTAAAACTCCTGT, -1.26.
In the case of GAGCCTGCAAGGGAGACCAGGAAAGTGAAT it was -1.24; in that of AGATAAGAAAGAATCAGCACAAGAATGCTA, -1.21.
Take GTCTGCTACCATCAGATAAGCTCAGGAGAA: the binding signal (log2 normalized intensity) is -1.4.
Consider CAGATACCCAGGCATATCCAACCTTCTCCC, for which the binding signal (log2 normalized intensity) was -1.12.
For ACTTGTCTCACATCTGATAGCTAAACCAGA the value was -1.24.
In the case of AAGGACTGTTGGACCTCGAACTCCAGTGGG it was 3.34; in that of GTGTGCGTGGGTGGGAAATCATTCCAGCTA, -1.31.
In the case of GCAGGTTCTCAGGCCAATCATATCTCCCAG, the binding signal (log2 normalized intensity) was -1.18.
Take GAAAAGACAGGGTAATTTACAGAACTCTTC: the binding signal (log2 normalized intensity) was -1.39.
In the case of CTAACCTTTGACCATCCACGGATGCATGAT, the binding signal (log2 normalized intensity) stood at 3.91.
Turning to CTGGCCTCCTGCGGTCCGGACTCTGCCCCA, the binding signal (log2 normalized intensity) was found to be 5.15.
In the case of TTAAACTGCCGCGCCACTGCGTCCAGCCAC it was -1.21.
